# Test results published in PubChem BioAssay (Tox21).
# Where “and” joins values, the source holds several entries; their conditions need not be identical. Equal values may be shown once. This list was built around the results that the source calls inconclusive (neither active nor inactive); the mix of calls is not that of the screen. For some assays here: Potencies beside an inconclusive call are fits to weak or partial responses and may not hold up. The source holds several records for some structures; these can differ, active in one and inactive in another. Calls of active or inactive are those of the source. Unless noted, calls come from the whole dose curve; as a rule, active = well fitted curve in the direction sought with a large enough effect in the repeat runs; inconclusive = weak or mixed curves; inactive = no such curve, though single readings can be large; an effect the other way counts as inactive or inconclusive.
# Tests used:
# [1] = qHTS assay for small molecules that induce genotoxicity in human embryonic kidney cells expressing luciferase-tagged ATAD5 - cell viability (AID 651634; calls by dose curve; note: nearly all actives have a fitted effect of over 25% in size; note: potency is the fitted concentration of half-maximal effect)
# How it was run: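 15.5 hr compound or vehicle exposure of HEK293T cells expressing luciferase-tagged ATAD5 at 37C; live-cell protease activity is read by fluorescence after 30 min of CellTiter-Fluor.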
# [2] = qHTS assay for small molecule disruptors of the mitochondrial membrane potential - cell viability (AID 720634; calls by dose curve; note: nearly all actives have a fitted effect of over 20% in size; note: potency is the fitted concentration of half-maximal effect;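 for activity change, negative = cytotoxicity: human HepG2 liver cancer cells; % is set by controls: 0 for no effect and ±100 for the full control effect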)
# How it was run: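 In this qHTS format, HepG2 cells plated overnight were pinned with compound, incubated 1 hr, and assayed for ATP luminescence with CellTiter-Glo after m-MPI dye addition.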
# [3] = qHTS assay for small molecule disruptors of the mitochondrial membrane potential (AID 720635); conditions: HepG2 mitochondrial membrane potential, Mito-MPS dye ratio; ratio activity, negative = MMP loss: at 83.2 µM (top of the series) unless noted; note: potency is the fitted concentration of half-maximal effect; for ratio activity, negative = MMP loss: % is set by controls: 0 for no effect and ±100 for the full control effect
# How it was run: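 HepG2 cells (2,000/well) attached overnight at 37C, then took compound for 1 hr at 37C, 5% CO2. Mito-MPS dye was added for 30 min; fluorescence was read at 490/535 nm (monomers) and 540/590 nm (aggregates).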
# [4] = qHTS assay for identifying genotoxic compounds that show differential cytotoxicity against isogenic chicken DT40 cell lines with known DNA damage response pathways - wild type cell line (AID 743012); conditions: DT40 wild type chicken cells viability, CellTiter-Glo, 40 h; activity change, negative = cytotoxicity: at 68.4 µM (top of the series) unless noted; note: potency is the fitted concentration of half-maximal effect; nearly all actives have a fitted effect of over 60% in size
# How it was run: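 Endpoint: CellTiter-Glo luminescence, 30 min RT. Cells: wild type DT40, 300/well. Exposure: compounds in DMSO, 40 h, 37 C/5% CO2, after ~0.5 h pre-incubation.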
# [5] = qHTS assay for identifying genotoxic compounds that show differential cytotoxicity against isogenic chicken DT40 cell lines with known DNA damage response pathways - Rev3 mutant cell line (AID 743014); conditions: chicken DT40 Rev3-/- viability, CellTiter-Glo, 40 h; activity, negative = cytotoxicity: at 68.4 µM (top of the series) unless noted; note: nearly all actives have a fitted effect of over 55% in size; note: potency is the fitted concentration of half-maximal effect
# [6] = qHTS assay for identifying genotoxic compounds that show differential cytotoxicity against isogenic chicken DT40 cell lines with known DNA damage response pathways - Rad54/Ku70 mutant cell line (AID 743015); conditions: DT40 Rad54/Ku70 mutant viability, CellTiter-Glo, 40 h; activity change, negative = cytotoxicity: at 66.8 µM (top of the series) unless noted; note: nearly all actives have a fitted effect of over 60% in size; note: potency is the fitted concentration of half-maximal effect
# [7] = qHTS assay for small molecule agonists of the p53 signaling pathway - cell viability (AID 651633; calls by dose curve; note: nearly all actives have a fitted effect of over 30% in size; note: potency is the fitted concentration of half-maximal effect)
# How it was run: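 p53RE-bla cells, seeded at 4,000 per well and rested 5 h at 37 C/5% CO2, received compounds in DMSO for 16 h at 37 C. CellTiter-Glo was then added, and luminescence was read after 30 min at room temperature to gauge cytotoxicity.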
# [8] = biological target: Glucocorticoid receptor (Homo sapiens) (UniProt P04150); test: qHTS assay to identify small molecule antagonists of the glucocorticoid receptor (GR) signaling pathway (AID 720692; active = well fitted inhibition curve with a large enough effect in the signal ratio in the repeat runs, not every such curve was filed as active; inconclusive = weak or mixed curves, or effect the other way; inactive = no such curve, though single readings can be large or run the other way; the % refers to the signal ratio; note: potency is the fitted concentration of half-maximal effect; for activity change, negative = inhibition: % is set by controls: 0 for no effect and ±100 for the full control effect); conditions: GR-bla HeLa, beta-lactamase FRET ratio, dexamethasone-stimulated, 18 h
# How it was run: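 Tox21 10K library screened in concentration-response for blockade of dexamethasone (5 nM final)-induced GRE-bla reporter activity in HeLa cells; 18 h treatment, fluorescence read.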
# [9] = biological target: Glucocorticoid receptor (Homo sapiens) (UniProt P04150); test: qHTS assay to identify small molecule agonists of the glucocorticoid receptor (GR) signaling pathway (AID 720691; active = well fitted activation curve with a large enough effect in the signal ratio in the repeat runs, not every such curve was filed as active; inconclusive = weak or mixed curves, or effect the other way; inactive = no such curve, though single readings can be large or run the other way; the % refers to the signal ratio; note: potency is the fitted concentration of half-maximal effect); conditions: GR-bla HeLa, beta-lactamase reporter ratio, 18 h; activation: at 62.4 µM (top of the series) unless noted
# How it was run: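 Measures GR pathway activation through a GRE-beta-lactamase reporter stably integrated in HeLa cells, with 18 h compound treatment at 37 C and fluorescence detection using a FRET substrate.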
# [10] = qHTS assay to identify small molecule antagonists of the glucocorticoid receptor (GR) signaling pathway - cell viability counter screen (AID 720693); conditions: GR-bla HeLa viability, CellTiter-Glo luminescence, 18 h, with 5 nM dexamethasone present; viability change, negative = cytotoxic: at 58.5 µM (top of the series) unless noted; note: potency is the fitted concentration of half-maximal effect; nearly all actives have a fitted effect of over 55% in size
# [11] = qHTS assay to test for compound auto fluorescence at 460 nm (blue) in HepG2 cell free culture (AID 720685); note: potency is the fitted concentration of half-maximal effect
# How it was run: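 Cell-free plates of MEM plus 10% FBS received 23 nL compound or DMSO vehicle; blue-channel (405/460 nm) intensity scored against triamterene as reference fluorophore.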
# [12] = qHTS assay to test for compound auto fluorescence at 460 nm (blue) in HEK293 cells (AID 720678); note: % is set by controls: 0 for no effect and ±100 for the full control effect
# How it was run: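 Triamterene serves as the blue fluorophore standard. Compound signal at 405/460 nm is read in HEK293 wells (2,000 cells, 10% dialyzed FBS) after overnight treatment at 37C.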
# [13] = qHTS assay to test for compound auto fluorescence at 460 nm (blue) in HEK293 cell free culture (AID 720681); note: potency is the fitted concentration of half-maximal effect
# How it was run: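 Test compounds were pinned into cell-free culture medium (DMEM with 10% FBS) and fluorescence was read directly at Ex/Em 405/460 nm. Signals were expressed as fluorescence equivalents of triamterene, with DMSO vehicle as control.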
# [14] = activity change, negative = inhibition: at 58.5 µM (top of the series) unless noted
# Tags give direction and shape of the fitted curve or compound fluorescence and quenching.
# UniProt P04150, sequence (P04150 whole entry, looked up): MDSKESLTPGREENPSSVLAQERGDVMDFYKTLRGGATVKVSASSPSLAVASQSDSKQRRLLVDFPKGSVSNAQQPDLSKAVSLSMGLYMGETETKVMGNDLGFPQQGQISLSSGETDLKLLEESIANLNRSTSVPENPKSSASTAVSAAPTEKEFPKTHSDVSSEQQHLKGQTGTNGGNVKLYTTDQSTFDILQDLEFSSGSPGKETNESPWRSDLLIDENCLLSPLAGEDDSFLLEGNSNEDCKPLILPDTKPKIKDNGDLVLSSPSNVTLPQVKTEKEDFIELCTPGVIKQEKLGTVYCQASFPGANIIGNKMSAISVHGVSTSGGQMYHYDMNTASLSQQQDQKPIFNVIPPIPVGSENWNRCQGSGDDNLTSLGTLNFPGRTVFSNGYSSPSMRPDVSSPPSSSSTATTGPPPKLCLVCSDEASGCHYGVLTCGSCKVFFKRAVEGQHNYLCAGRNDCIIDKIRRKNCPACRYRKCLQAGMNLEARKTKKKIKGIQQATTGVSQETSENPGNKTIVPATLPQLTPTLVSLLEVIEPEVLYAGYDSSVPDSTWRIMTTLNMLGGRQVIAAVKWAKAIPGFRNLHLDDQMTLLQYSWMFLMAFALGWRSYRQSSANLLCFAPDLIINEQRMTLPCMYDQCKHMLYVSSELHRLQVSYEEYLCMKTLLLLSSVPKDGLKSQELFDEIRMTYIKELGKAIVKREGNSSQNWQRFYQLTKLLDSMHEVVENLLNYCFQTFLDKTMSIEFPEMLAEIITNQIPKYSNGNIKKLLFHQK
smiles,measurement,setting,value
CC(C)(C)N(NC(=O)c1ccc(Cl)cc1)C(=O)c1ccccc1,Potency,[1],"inconclusive: 4.83 µM [falling, partial curve, poor fit]"
same,Potency,[2],"inconclusive: 43 µM [cytotoxic, partial curve, poor fit]"
same,Potency,[3],active: 60.8 µM
same,Potency,[4],"inconclusive: 60.8 µM [cytotoxic, partial curve]"
same,Potency,[5],"inconclusive: 68.2 µM [cytotoxic, single point]"
same,Potency,[6],active: 43 µM
CCCCC(C#N)(Cn1cncn1)c1ccc(Cl)cc1 (stereo not drawn),Potency,[7],"inconclusive: 54.3 µM [cytotoxic, partial curve, poor fit]"
same,Potency,[3],"inconclusive: 60.9 µM [inhibitor, partial curve, poor fit]"
same,"ratio activity, negative = MMP loss",[3],inconclusive: -2.96%
same,"activity change, negative = inhibition",[8]; [14],inconclusive: -9.44%
same,Potency,[4],"inconclusive: 76.6 µM [cytotoxic, single point]"
same,Potency,[6],"inconclusive: 68.6 µM [cytotoxic, single point]"
OC(c1ccc(Cl)cc1)(c1cncnc1)c1ccccc1Cl (stereo not drawn),Potency,[2],"inconclusive: 62.2 µM [cytotoxic, partial curve] and inconclusive: 61.1 µM [cytotoxic, partial curve, poor fit]"
same,Potency,[3],active: 49.4 µM and active: 30.6 µM
same,Potency,[8]; [14],active: 49 µM
same,"activity change, negative = inhibition",[8]; [14],inconclusive: -40.1% [at 78.9 µM]
same,Potency,[4],"inconclusive: 62.2 µM [cytotoxic, single point]"
CC(C)N(C(=O)CCl)c1ccccc1,Potency,[2],inactive
same,"ratio activity, negative = MMP loss",[3],inconclusive: 19.9%
same,Potency,[9],"inconclusive: 54.9 µM [inhibitor] and inconclusive: 11 µM [cytotoxic, partial curve, poor fit]"
same,Potency,[10],"inconclusive: 54.9 µM [cytotoxic, single point] and active: 54.9 µM"
Nc1ccc([N+](=O)[O-])cc1N,Potency,[1],"inconclusive: 27.3 µM [falling, partial curve]"
same,Potency,[3],"inconclusive: 27.3 µM [inhibitor, partial curve]"
same,Potency,[4],"inconclusive: 61.1 µM [cytotoxic, partial curve, poor fit]"
CCCCCCC#N,Potency,[2],inactive
C[C@]12CC[C@H]3[C@@H](CCC4=CC(=O)CC[C@@]43C)[C@@H]1CC[C@@H]2O,Potency,[1],inactive
same,Potency,[3],"inconclusive: 60.7 µM [rising, partial curve, poor fit]"
same,Potency,[10],"inconclusive: 19.4 µM [cytotoxic, partial curve]"
same,Potency,[4],active: 54.1 µM
same,Potency,[6],"inconclusive: 68.1 µM [cytotoxic, single point]"
Oc1c(Br)cc(Br)cc1Br,Potency,[2],"inconclusive: 61.3 µM [cytotoxic, partial curve, poor fit] and inconclusive: 54.5 µM [cytotoxic, partial curve, poor fit]"
same,Potency,[3],"inconclusive: 33.5 µM [inhibitor, single point] and active: 48.7 µM and active: 54.5 µM"
CCC(CC)Nc1c([N+](=O)[O-])cc(C)c(C)c1[N+](=O)[O-],Potency,[2],"inconclusive: 34.8 µM [cytotoxic, partial curve, poor fit] and inconclusive: 48.5 µM [cytotoxic, partial curve, poor fit]"
same,Potency,[3],active: 49.2 µM
same,"ratio activity, negative = MMP loss",[3],inconclusive: -15.7%
same,"activity change, negative = inhibition",[8]; [14],inconclusive: -20.5% [at 78.9 µM]
C1CN2CCN1CC2,Potency,[1],"inconclusive: 68.6 µM [falling, partial curve, poor fit]"
CCCCN(CCCC)SN(C)C(=O)Oc1cccc2c1OC(C)(C)C2,Potency,[2],"inconclusive: 30.6 µM [cytotoxic, partial curve, poor fit]"
same,Potency,[3],"active: 62.1 µM and inconclusive: 38.6 µM [fluorescent, partial curve, poor fit]"
same,Potency,[11],"inconclusive: 12.6 µM [fluorescent, single point]"
same,"activity change, negative = inhibition",[8]; [14],inconclusive: -28.7%
same,"activity change, negative = inhibition",[8]; at 78.9 µM (top of the series),inactive: -16.6%
same,Potency,[5],"inconclusive: 69.7 µM [cytotoxic, single point] and active: 48.6 µM"
same,Potency,[6],"inconclusive: 69.7 µM [cytotoxic, single point]"
Cc1cc(Cl)ccc1OCC(=O)O,Potency,[2],inactive
same,Potency,[3],"inconclusive: 1.93 µM [activator, full curve, poor fit]"
same,"ratio activity, negative = MMP loss",[3],inconclusive: 12.5%
same,Potency,[4],"inconclusive: 10.8 µM [rising, single point]"
same,Potency,[5],inactive
same,"activity change, negative = cytotoxicity",[6],inconclusive: 32.4%
CN1C[C@H](CNC(=O)OCc2ccccc2)C[C@@H]2c3cccc4c3c(cn4C)C[C@H]21,Potency,[7],"inconclusive: 37.6 µM [cytotoxic, partial curve, poor fit]"
same,Potency,[3],"inconclusive: 11.9 µM [activator, full curve]"
same,Potency,[8]; [14],"inconclusive: 23.9 µM [rising, single point]"
CC(C)C1(C)N=C(c2nc3ccccc3cc2C(=O)O)NC1=O (stereo not drawn),Potency,[1],inactive
same,"ratio activity, negative = MMP loss",[3],inconclusive: 4.23%
same,Potency,[8]; [14],inactive
same,Potency,[4],"inconclusive: 1.38 µM [rising, single point]"
CON(C)C(=O)Nc1ccc(Br)c(Cl)c1,Potency,[2],"inconclusive: 30.6 µM [cytotoxic, partial curve, poor fit]"
same,"ratio activity, negative = MMP loss",[3],inconclusive: -44.4%
same,"activity change, negative = inhibition",[8]; [14],inconclusive: 2.95%
same,Potency,[10],"inconclusive: 0.49 µM [rising, single point]"
same,Potency,[4],"inconclusive: 68.6 µM [cytotoxic, single point]"
same,Potency,[5],active: 61.1 µM
same,Potency,[6],"inconclusive: 68.6 µM [cytotoxic, single point]"
CCC1(CC)C(=O)N=C(O)NC1=O,Potency,[7],inactive
same,"ratio activity, negative = MMP loss",[3],inconclusive: 29%
C[N+](C)(C)CC(=O)O,Potency,[2],inactive
same,Potency,[3],inconclusive: 68.6 µM [activator]
same,"ratio activity, negative = MMP loss",[3],inconclusive: -7.07%
same,Potency,[4],"inconclusive: 0.077 µM [rising, full curve]"
COC(C)(C)CCC[C@H](C)C/C=C/C(C)=C/C(=O)OC(C)C,Potency,[2],"inconclusive: 38.6 µM [cytotoxic, partial curve]"
same,Potency,[3],active: 30.6 µM
CCOP(=S)(OCC)Oc1ccc(Cl)cc1Cl,Potency,[2],"inconclusive: 27.3 µM [cytotoxic, partial curve]"
same,Potency,[3],"inconclusive: 38.6 µM [fluorescent, partial curve, poor fit]"
same,Potency,[12],inactive
same,Potency,[8]; [14],inactive
same,Potency,[4],"inconclusive: 48.6 µM [cytotoxic, single point]"
same,Potency,[6],inactive
CCCC1COC(Cn2cncn2)(c2ccc(Cl)cc2Cl)O1 (stereo not drawn),Potency,[7],"inconclusive: 6.23 µM [cytotoxic, partial curve, poor fit]"
same,Potency,[3],"inconclusive: 7.84 µM [activator, partial curve, poor fit] and inconclusive: 969 nM [activator, full curve]"
same,Potency,[12],inactive
Nc1ccc(Br)cc1,Potency,[1],"inconclusive: 3.06 µM [falling, partial curve, poor fit]"
same,"ratio activity, negative = MMP loss",[3],inconclusive: 9.51%
same,"activity change, negative = inhibition",[8]; [14],inconclusive: -28.8% and inconclusive: -29.6%
same,Potency,[4],"inconclusive: 68.5 µM [cytotoxic, single point]"
Nc1c(Cl)c(Cl)c(Cl)c(Cl)c1Cl,Potency,[2],"inconclusive: 77 µM [cytotoxic, partial curve, poor fit]"
same,Potency,[3],inconclusive: 6.86 µM [activator]
same,Potency,[13],"inconclusive: 12.6 µM [phenotype inactive, single point]"
same,Potency,[9],"inconclusive: 3.89 µM [rising, partial curve, poor fit]"
same,Potency,[8]; [14],inconclusive: 49 µM [inhibitor]
same,Potency,[4],"inconclusive: 61.1 µM [rising, single point]"
same,Potency,[5],"inconclusive: 43.3 µM [cytotoxic, partial curve, poor fit]"
CSC1=N[C@@](C)(c2ccccc2)C(=O)N1Nc1ccccc1,Potency,[2],"inconclusive: 38.6 µM [cytotoxic, partial curve, poor fit]"
same,Potency,[3],active: 61.1 µM
same,Potency,[9],inactive
same,Potency,[5],active: 1.72 µM
CCCCC(CC)COP(=O)(Oc1ccccc1)Oc1ccccc1 (stereo not drawn),Potency,[2],"inconclusive: 30.6 µM [cytotoxic, partial curve, poor fit]"
same,Potency,[3],inconclusive: 30.6 µM [inhibitor]
same,Potency,[6],"inconclusive: 17.2 µM [cytotoxic, partial curve, poor fit]"
COc1ccc(O)c(C(C)(C)C)c1,Potency,[2],"inconclusive: 61.3 µM [cytotoxic, partial curve, poor fit]"
same,Potency,[3],active: 30.7 µM and active: 24.3 µM
same,Potency,[4],"inconclusive: 61.1 µM [cytotoxic, single point]"
same,Potency,[5],"inconclusive: 61.1 µM [cytotoxic, single point]"
same,Potency,[6],"inconclusive: 68.6 µM [cytotoxic, single point]"
CN(N=O)c1ccc([N+](=O)[O-])cc1,Potency,[3],inactive
Nc1c(Cl)cc([N+](=O)[O-])cc1Cl,Potency,[2],"inconclusive: 30.8 µM [cytotoxic, partial curve, poor fit] and active: 24.3 µM"
same,Potency,[3],active: 24.5 µM and active: 4.33 µM
same,Potency,[6],inactive and active: 61.1 µM
CCCCN(CCCC)N=O,Potency,[2],inactive
same,Potency,[8]; [14],inactive
same,Potency,[4],"inconclusive: 0.33 µM [rising, partial curve, poor fit]"
same,Potency,[5],inactive
CCOC(=O)Cc1ccccc1,Potency,[3],"inconclusive: 19.3 µM [activator, partial curve, poor fit]"
